Assay results: publication PMC3742252 (2013)

Molecular target: Thyroid-stimulating hormone (bTSH-biotin) (Bos taurus, UniProt P01217)
Test: Scatchard analysis of saturation binding (chemiluminescence, AP-streptavidin)

Kd: 190 nM
B1: Thyroid-stimulating hormone receptor (Mms13-hTSHR on BacMPs) (protein)
chain: not shown
modifications: Mms13 N-terminal fusion and C-terminal FLAG tag on TSHR displayed on bacterial magnetic particles; biotin-labeled TSH
